Reference: the supplement of paper PMC10670038
Structures can show the parent of a compound that is named as a salt. ± gives the standard deviation of the averaged measurements. Over roughly 2,000 compounds, “relative cell viability vs DMSO, compound alone” has its median near 1.1; the lowest 2% begin near 0.29. The list shows a part of the results.

Each compound was assayed on TE10 (assay: relative cell viability vs DMSO, compound alone (fraction); TE10 is an esophageal squamous carcinoma line; higher = less cytotoxic). Conditions: 2 µM; 48 h.
Description: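 TE10 ESCC cells (1,000/well, 384-well plates) were treated with Selleck bioactive library compounds at 2 uM alone for 48 h. Viability was read by CellTiter-Glo and expressed relative to DMSO wells. Two technical replicates (A, B).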
Work on `C=CCc1cc(OC)c(O)c(C(=O)NCCO)c1` [Alibendol] yielded a relative cell viability of 0.894 ± 0.033.
For `CCOc1cn(-c2ccc(F)cc2C)nc1C(=O)Nc1ccc(Oc2ccnc3cc(OC)c(OC)cc23)c(F)c1`, the relative cell viability was 1.06 ± 0.061.
For `C#C[C@]1(O)CC[C@H]2[C@@H]3CCC4=CC(=O)CC[C@@H]4[C@H]3CC[C@@]21C` [Norethindrone], the relative cell viability was 1.15 ± 0.076.
With `C#C[C@]1(OC(C)=O)CC[C@H]2[C@@H]3CCC4=C[C@@H](OC(C)=O)CC[C@@H]4[C@H]3CC[C@@]21C` [Ethynodiol diacetate] the relative cell viability was 1.1324 ± 0.00089.
Compound `CC(C)[C@H](C(=O)Nc1ccc(C(=O)NO)cc1)c1ccccc1` has a relative cell viability of 0.221 ± 0.015.
`Nc1ccc(S(=O)(=O)Nc2ncccn2)cc1` [Sulfadiazine] gave a relative cell viability of 0.961 ± 0.083.
Compound `CCCC(C)NC(=O)c1ccc(Cl)c(Cl)c1` (centres undefined) has a relative cell viability of 1.162 ± 0.004.
For `CNC1CCC(N(Cc2cccc(-c3ccncc3)c2)C(=O)c2sc3ccccc3c2Cl)CC1` (centres undefined) [Smoothened Agonist (SAG) HCl], the relative cell viability was 1.135 ± 0.0013.
In the case of `Nc1ccc(O)c(C(=O)O)c1` [Mesalamine], the relative cell viability is reported as 1.02 ± 0.024.
With `COC(=O)N1CCN(Cc2cccc(NC(=O)Nc3ccc(C)nc3)c2F)CC1` the relative cell viability was 1.04 ± 0.047.
In the case of `O=C(O)CSc1cc(NS(=O)(=O)c2ccc(Br)cc2)c2ccccc2c1O`, the relative cell viability is reported as 0.967 ± 0.24.
Compound `CN(C)CCCN1c2ccccc2CCc2ccc(Cl)cc21` [Clomipramine HCl] has a relative cell viability of 1.02 ± 0.031.
In the case of `COC(=O)C1=C(C)NC(C)=C(C(=O)OC)C1c1ccccc1[N+](=O)[O-]` [Nifedipine], the relative cell viability is reported as 1.05 ± 0.045.
For `NC(=O)c1cccc2[nH]c(-c3ccc(C4CCCN4)cc3F)nc12` (centres undefined), the relative cell viability was 0.9172 ± 0.0024.
Compound `CC(C)NC[C@H](O)COc1ccc(CCOCC2CC2)cc1` [Levobetaxolol HCl] has a relative cell viability of 0.768 ± 0.035.
Work on `COc1cc2c(cc1O)CC[C@@H]1[C@@H]2CC[C@]2(C)[C@@H](O)CC[C@@H]12` [2-Methoxyestradiol (2-MeOE2)] yielded a relative cell viability of 0.582 ± 0.21.
With `COc1cc(N2CCN(C)CC2)ccc1Nc1nccc(-c2cn(C)c3cnccc23)n1` the relative cell viability was 1.1305 ± 0.0005.
`C[C@@H](c1ncncc1F)[C@](O)(Cn1cncn1)c1ccc(F)cc1F` [Voriconazole] was tested, and the relative cell viability was 1.01 ± 0.22.
`Cc1c(NC(=O)c2ccc(C(C)(C)C)cc2)cccc1-c1cn(C)c(=O)c(Nc2ccc(C(=O)N3CCOCC3)cc2)n1` was tested, and the relative cell viability was 1.09 ± 0.095.
`O=C(O)Cc1ccccc1Nc1c(Cl)cccc1Cl` [Diclofenac Sodium] was tested, and the relative cell viability was 1.13 ± 0.045.
`O=C(O)Cc1ccccc1Nc1c(Cl)cccc1Cl` [Diclofenac Diethylamine] showed a relative cell viability of 1.07 ± 0.038.
`O=C(O)Cc1ccccc1Nc1c(Cl)cccc1Cl` [Diclofenac Potassium] gave a relative cell viability of 0.908 ± 0.26.
Compound `C[C@@H]1CC(=O)NN=C1c1ccc(NN=C(C#N)C#N)cc1` [Levosimendan] has a relative cell viability of 0.843 ± 0.16.
`CN(C)CCCNC(=O)c1ccc(-c2cc(O)c3ncccc3c2)cc1` gave a relative cell viability of 1.06 ± 0.079.
`N=c1ccn2c(n1)O[C@H]1[C@H](O)[C@@H](CO)O[C@H]12` [Cyclocytidine HCl] gave a relative cell viability of 0.964 ± 0.024.
With `CNC(=O)c1ccc2cc([C@@]3(O)CCn4cncc43)ccc2c1` [TAK-700 (Orteronel)] the relative cell viability was 1.21 ± 0.024.
Work on `CC(=O)Oc1cc(C(F)(F)F)ccc1C(=O)O` [Triflusal] yielded a relative cell viability of 0.869 ± 0.1.
Compound `Cc1cncc(CN2CCC(=C3c4ccc(Cl)cc4CCc4cccnc43)CC2)c1` [Rupatadine Fumarate] has a relative cell viability of 0.992 ± 0.029.
Work on `CS(=O)(=O)c1ccc([C@@H](O)[C@@H](CO)NC(=O)C(Cl)Cl)cc1` [Thiamphenicol] yielded a relative cell viability of 1.27 ± 0.053.
In the case of `C[C@]12C=CC(=O)C=C1CC[C@@H]1[C@@H]2[C@@H](O)C[C@@]2(C)[C@H]1CC[C@]2(O)C(=O)CO` [Prednisolone], the relative cell viability is reported as 0.997 ± 0.037.
Compound `O=c1ncn2nc(Sc3ccc(F)cc3F)ccc2c1-c1c(Cl)cccc1Cl` has a relative cell viability of 1.21 ± 0.017.
With `O=c1[nH]cc(F)c(=O)[nH]1` [Fluorouracil (5-Fluoracil, 5-FU)] the relative cell viability was 1.07 ± 0.022.
In the case of `CCn1c(=O)c(-c2ccc(-c3cncs3)cc2Cl)cc2cnc(Nc3ccc(N4CCN(C)CC4)cc3)nc21`, the relative cell viability is reported as 0.98 ± 0.023.
In the case of `Cc1cnc(Nc2ccc(N3CCN(C)CC3)cc2)nc1Nc1cccc(S(=O)(=O)NC(C)(C)C)c1`, the relative cell viability is reported as 0.8501 ± 0.00098.
`O=C1NC(=O)/C(=C/c2ccc(-c3ccc(F)cc3O)o2)S1` was tested, and the relative cell viability was 0.958 ± 0.04.
`CC(C)CCN1c2nc(Nc3cc(F)c(O)c(F)c3)ncc2N(C)C(=O)C1C` (centres undefined) showed a relative cell viability of 0.987 ± 0.015.
`NC1(c2ccc(-c3nc4ccn5c(=O)[nH]nc5c4cc3-c3ccccc3)cc2)CCC1` was tested, and the relative cell viability was 0.91 ± 0.015.
Work on `CC[C@@]1(O)C(=O)OCc2c1cc1n(c2=O)Cc2cc3cc(O)ccc3nc2-1` [(S)-10-Hydroxycamptothecin] yielded a relative cell viability of 0.451 ± 0.041.
For `Cc1cccc(-c2[nH]c(C(C)(C)C)nc2-c2ccc3nccnc3c2)n1`, the relative cell viability was 1.33 ± 0.027.
`CN1CCN(CCCNc2ncc(Cl)c(-c3cc4c(C(=O)NC5CC5)cccc4s3)n2)CC1` was tested, and the relative cell viability was 0.99 ± 0.023.
In the case of `NC(=O)c1noc([C@H](CCCC2CCCCC2)CC(=O)NO)n1`, the relative cell viability is reported as 1.04 ± 0.035.
`CCOc1ccn(-c2ccc(F)cc2)c(=O)c1C(=O)Nc1ccc(Oc2ccnc(N)c2Cl)c(F)c1` showed a relative cell viability of 1.04 ± 0.03.
With `CCn1cc(-c2ccnc3[nH]c(-c4cccc(CN(C)C)c4)cc23)c(-c2ccc(NC(=O)N(C)C)cc2)n1` the relative cell viability was 1.014 ± 0.0061.
For `Cc1nc(Nc2n[nH]c3c2CN(C(=O)N[C@H](CN(C)C)c2ccccc2)C3(C)C)c2sccc2n1`, the relative cell viability was 0.789 ± 0.037.
With `CNC[C@H](O)c1cccc(O)c1` [Phenylephrine HCl] the relative cell viability was 1.119 ± 0.0098.
Compound `O=S(=O)(NCCNCC=Cc1ccc(Br)cc1)c1cccc2cnccc12` has a relative cell viability of 1.14 ± 0.018.
Compound `CC(C)C[C@H](NC(=O)CNC(=O)c1cc(Cl)ccc1Cl)B(O)O` has a relative cell viability of 0.341 ± 0.023.
In the case of `N#C[C@@H]1CCCN1C(=O)CNC12CC3CC(CC(O)(C3)C1)C2` [Vildagliptin (LAF-237)], the relative cell viability is reported as 0.7629 ± 0.0045.
`CCN(CC)CCN(Cc1ccc(-c2ccc(C(F)(F)F)cc2)cc1)C(=O)Cn1c(SCc2ccc(F)cc2)nc(=O)c2c1CCC2` gave a relative cell viability of 1.03 ± 0.043.
`CNC(=C[N+](=O)[O-])NCCSCc1ccc(CN(C)C)o1` [Ranitidine] was tested, and the relative cell viability was 1.05 ± 0.06.
`C=CCc1ccc(O)c(-c2ccc(O)c(CC=C)c2)c1` [Honokiol] showed a relative cell viability of 0.933 ± 0.013.
`COc1cc2c(cc1OC)-c1cc3ccc(OC)c(OC)c3c[n+]1CC2` [Palmatine chloride] showed a relative cell viability of 0.9392 ± 0.0029.
`Cc1cc(N2CCOCC2)ccc1Nc1nc(NC2CCCCC2)c2[nH]cnc2n1` was tested, and the relative cell viability was 1.098 ± 0.0034.
With `O=C(O)c1ccc(Nc2ncc3c(n2)-c2ccc(Cl)cc2C(c2c(F)cccc2F)=NC3)cc1` the relative cell viability was 1.22 ± 0.016.
In the case of `OCc1ccc(-c2ccc(-c3ccc(CO)s3)o2)s1`, the relative cell viability is reported as 0.0807 ± 0.0069.
With `O=c1c(-c2ccc(O)cc2)coc2cc(O)cc(O)c12` [Genistein] the relative cell viability was 1.23 ± 0.026.
For `CSc1cccc(Nc2ncc3cc(-c4c(Cl)cccc4Cl)c(=O)n(C)c3n2)c1`, the relative cell viability was 0.76 ± 0.024.
Work on `COc1ccc2cccc(CCNC(C)=O)c2c1` [Agomelatine] yielded a relative cell viability of 0.866 ± 0.045.
`C1=N/C2=N/c3ccc(OCCN4CCCC4)c(c3)COC/C=C/COCc3cccc(c3)C(=C1)N2` [Pacritinib (SB1518)] gave a relative cell viability of 0.87 ± 0.0098.
In the case of `COc1cc(C=O)ccc1O` [Vanillin], the relative cell viability is reported as 1.11 ± 0.027.
With `C#C[C@]1(O)CC[C@H]2[C@@H]3CCc4cc(OC)ccc4[C@H]3CC[C@@]21C` [Mestranol] the relative cell viability was 1.06 ± 0.043.
Compound `CC(C)NCC(O)c1ccc(NS(C)(=O)=O)cc1` (centres undefined) [Sotalol] has a relative cell viability of 1.07 ± 0.013.
For `CC(=O)N1CCN(c2ccc(OCC3COC(Cn4ccnc4)(c4ccc(Cl)cc4Cl)O3)cc2)CC1` (centres undefined) [Ketoconazole], the relative cell viability was 1.13 ± 0.024.
`CN(CCOc1ccc(NS(C)(=O)=O)cc1)CCc1ccc(NS(C)(=O)=O)cc1` [Dofetilide] gave a relative cell viability of 1.055 ± 0.008.
With `Cc1[nH]c(/C=C2\C(=O)Nc3ccccc32)c(C)c1CCC(=O)O` [TSU-68 (SU6668, Orantinib)] the relative cell viability was 1.28 ± 0.12.
`CCN(CC)CCCC(C)Nc1c2ccc(Cl)cc2nc2ccc(OC)cc12` (centres undefined) [Quinacrine 2HCl] showed a relative cell viability of 0.953 ± 0.031.
Compound `O=C(O)P(=O)(O)O` [Foscarnet Sodium] has a relative cell viability of 1.16 ± 0.04.
In the case of `CC(C)(C)NS(=O)(=O)c1cncc(-c2cc(F)c3nc(N)nn3c2)c1`, the relative cell viability is reported as 1.1 ± 0.056.
Work on `COc1cc2ncnc(Nc3ccc(Cl)cc3F)c2cc1OC` yielded a relative cell viability of 0.999 ± 0.16.
`N#Cc1ccc2[nH]c(O)c(-c3ccc(CN4CCOCC4)cn3)c2c1` showed a relative cell viability of 1.34 ± 0.035.
Compound `Oc1ccc(Nc2nc(-c3ccc(Cl)cc3)cs2)cc1` has a relative cell viability of 1.11 ± 0.019.
With `CO[C@H]1C[C@@H]2CC[C@@H](C)[C@@](O)(O2)C(=O)C(=O)N2CCCC[C@H]2C(=O)O[C@H]([C@H](C)C[C@@H]2CC[C@@H](O)[C@H](OC)C2)CC(=O)[C@H](C)/C=C(\C)[C@@H](O)[C@@H](OC)C(=O)[C@H](C)C[C@H](C)/C=C/C=C/C=C/1C` [Rapamycin (Sirolimus)] the relative cell viability was 0.818 ± 0.026.
`N[C@@H]1CCCN(c2c(/C=C3\SC(=O)NC3=O)cccc2-c2ccccc2)C1` showed a relative cell viability of 1.03 ± 0.047.
For `CS(=O)(=O)Nc1ccc([N+](=O)[O-])cc1Oc1ccccc1` [Nimesulide], the relative cell viability was 1.09 ± 0.016.
`C=CC(=O)Nc1cccc(Nc2nc(Nc3ccc(NC4CN(CCF)C4)cc3OC)ncc2C(F)(F)F)c1` showed a relative cell viability of 0.912 ± 0.027.
For `CCC1=C[C@@H]2CN(C1)Cc1c([nH]c3ccccc13)[C@@](C(=O)OC)(c1cc3c(cc1OC)N(C)[C@H]1[C@@](O)(C(=O)OC)[C@H](OC(C)=O)[C@]4(CC)C=CCN5CC[C@]31[C@@H]54)C2` [Vinorelbine Tartrate], the relative cell viability was 0.917 ± 0.11.
In the case of `CC(C)CN(C[C@@H](O)[C@H](Cc1ccccc1)NC(=O)O[C@H]1CCOC1)S(=O)(=O)c1ccc(N)cc1` [Amprenavir], the relative cell viability is reported as 1.019 ± 0.0065.
For `CNC(=C[N+](=O)[O-])NCCSCc1csc(CN(C)C)n1` [Nizatidine], the relative cell viability was 1.08 ± 0.056.
For `CC1(C)[C@@H](O[C@H]2O[C@H](C(=O)O)[C@@H](O)[C@H](O)[C@H]2O[C@@H]2O[C@H](C(=O)O)[C@@H](O)[C@H](O)[C@H]2O)CC[C@]2(C)[C@H]3C(=O)C=C4[C@@H]5C[C@@](C)(C(=O)O)CC[C@]5(C)CC[C@@]4(C)[C@]3(C)CC[C@@H]12` [Ammonium Glycyrrhizinate], the relative cell viability was 1.13 ± 0.036.
